The whole screen tested about 43,000 compounds, of which about 200 (0.47%) were called active. Roughly 12% stayed inconclusive and do not appear here. The call rests on the fitted dose curve; in most records, active means well fitted cell-killing curve with a large enough effect; inconclusive means small, poorly fitted or top-dose-only effect, or effect the other way; inactive means flat fitted curve, though single readings scatter. Some of the results follow.
experiment: Cell viability qHTS assay in S16 Pmp22-F2sN cells; settings: S16 Pmp22-F2sN Schwann cells (luciferase reporters placed in the Pmp22 gene) viability, CellTiter-Glo, 24 h; series mostly up to 57.5 µM; activity change, negative = cytotoxicity: at the top concentration; further: nearly all actives have a fitted effect of over 65% in size
Method in brief: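 Rat S16 Schwann reporter line, 24 h treatment with library compounds delivered at 23 nL per well. Cell viability by CellTiter-Glo luminescence.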
On the % scale 0 is the no-effect control and ±100 the full control effect.

| SMILES | activity change, negative = cytotoxicity |
| --- | --- |
| Cc1cc(C)cc(NC(=O)CCCc2nnc3n(CC(C)C)c(=O)c4sccc4n23)c1 | inactive: 7.85% |
| CCOc1cc(C2CC(=O)Nc3c2c(=O)nc(SCc2cccc(Cl)c2)n3C)ccc1O (configuration not stated) | inactive: -13.9% |
| Cc1ccccc1CNC(=O)c1cc2cccc3c2n1CC(C)S3 (configuration not stated) | inactive: 2.46% |
| O=C(NCCCO)C(=O)Nc1c2c(nn1-c1ccccc1)CSC2 | inactive: -6.46% |
| COc1cccc(CNC(=O)C2CCN(C(=O)c3sccc3-n3cccc3)CC2)c1 | inactive: -1.8% |
| CCC(CC)C(=O)NCc1nc2cccnc2n1Cc1ccc(F)cc1 | inactive: 17.9% |
| CCCN(CCC)C(=O)c1cn(CC)c2ccc(S(=O)(=O)N3CCCCC3)cc2c1=O | inactive: 1.03% |
| Cc1ccc(CSCCC(=O)N2CCN(c3cc(C)ccc3C)CC2)cc1 | inactive: -8.02% |
| CCCN(CCC)C(=O)C1CCCN(c2ncnc3onc(-c4ccc(F)cc4)c23)C1 (configuration not stated) | inactive: 6.77% |
| COc1ccc(-c2noc(CN(C(=O)Cc3ccc(C)cc3)C(C)C)n2)cc1 | inactive: 2.7% |
| CCC(C)NC(=O)CSc1nnc(-c2ccc(C)cc2)c(-c2ccc(C)cc2)n1 (configuration not stated) | inactive: -25.6% |
| COc1cc(C)ccc1OCCSc1nc2ccc(NC(=O)c3cccs3)cc2s1 | inactive: 7.21% |
| Cc1ccc(C(=O)Nc2ccccc2C(=O)OCc2cc(=O)n3nc(C4CC4)sc3n2)cc1 | inactive: 2.73% |
| O=C(CN1C(=O)C2(SCC(=O)N2c2ccccc2)c2ccccc21)NCCc1ccccc1 (configuration not stated) | inactive: 18% |
| CCc1ccc(NC(=O)CSc2nc3c(sc4ccccc43)c(=O)n2CCN(CC)CC)cc1 | inactive: 1.09% |
| Cc1ccc(CNS(=O)(=O)c2cc3c(cc2C)N(C)CCO3)cc1 | inactive: 5.55% |
| Cc1cn2c(=O)cc(COC(=O)c3ccccc3F)nc2s1 | inactive: -10.5% |
| COc1ccc2nc3sc(C(=O)N4CCN(c5ccc(F)cc5)CC4)cc3cc2c1 | inactive: 11.2% |
| Cc1ccc(C)c(N2CCN(S(=O)(=O)c3ccc4c(c3)CCCN4C(=O)C3CCC3)CC2)c1 | inactive: -15.5% |
| Cc1ccc(CNC(=O)CN2C(=O)CSc3ccc(S(=O)(=O)N4CCCC4)cc32)cc1 | inactive: 4.18% |
| CCc1ccc(C(=O)CSc2nc(-c3ccccc3)nc3c2CCCC3)cc1 | inactive: 5.16% |

| SMILES | activity change, negative = cytotoxicity |
| --- | --- |
| CN(C)c1ccc(CNC(=O)CN2C(=O)CCn3nc(-c4cn(C)c5ccccc45)cc32)cc1 | inactive: -3.61% |
| COc1cccc(-c2nc3c(c(SCc4ccccc4Cl)n2)Cc2c(CO)cnc(C)c2O3)c1 | inactive: -0.254% |
| COc1ccc(CNS(=O)(=O)c2ccc(F)c(C(=O)Nc3c(C)cc(C)cc3C)c2)cc1 | inactive: 16% |
| Cc1cc2oc(C(=O)Nc3sc4c(c3C(=O)NCc3ccccc3)CCCC4)cc(=O)c2cc1C | inactive: 0.189% |
| CCCn1c2ccccc2c2cnn(CC(=O)NC(C)CC)c(=O)c21 (configuration not stated) | inactive: 3.37% |
| CCCCOC(=O)/C(C#N)=C/c1ccc(-c2ccc(Br)cc2)o1 | inactive: -7.71% |
| CCC(=O)N1CCN(c2nc3c(C)cccc3s2)CC1 | inactive: -3.59% |
| Cc1ccc(NC(=O)CCCN2C(=O)COc3ccc(C)cc32)c(C)c1 | inactive: -10.7% |
| Cc1ccc(N2C(=O)CSC23C(=O)N(CC(=O)Nc2ccc(C)cc2C)c2ccccc23)cc1 (configuration not stated) | inactive: -21.2% |
| COc1ccc2c(Sc3ccccc3)c(C(=O)N3CCC(C)CC3)[nH]c2c1 | inactive: -1.22% |
| CCc1cccc(C)c1NC(=O)c1nc2ccccc2nc1N1CCCCC1 | inactive: 0.311% |
| Cc1ccc([N+](=O)[O-])c(Oc2ncnc3c2oc2ccccc23)c1 | inactive: -3.26% |
| CCOC(=O)c1c(-c2ccc(C)cc2C)csc1NC(=O)c1ccccc1Cl | inactive: 22.6% |
| NC(=O)C1CCN(C(=O)c2ccc3c(c2)N(Cc2cccc(Cl)c2)C(=O)c2ccccc2S3(=O)=O)CC1 | inactive: -2.5% |
| Cc1ccc2c(=O)cc(C(=O)Nc3c(C(=O)c4ccccc4)oc4ccccc34)oc2c1 | inactive: 1.31% |
| CCOc1ccc(NS(=O)(=O)c2ccc3[nH]cc(C(=O)N(C)C4CCCCC4)c(=O)c3c2)cc1 | inactive: -2.44% |
| CC(CNC(=O)c1ccc(Nc2nc3ccccc3n3nnnc23)cc1)c1ccccc1 (configuration not stated) | inactive: 1.55% |
| COCCNC(=O)Cn1cc2c(n1)-c1c(oc(C(=O)N3CCCC3)c1C)CC2 | inactive: 1.34% |
| NC(=O)Cn1c(=O)n(CCCCCC(=O)NCc2ccccc2Cl)c(=O)c2sccc21 | inactive: 8.11% |
| COC(=O)c1c(-c2cccs2)csc1NC(=O)COc1ccccc1 | inactive: -2.09% |
| COc1cccc(N2CC(NC(=O)C3CCCC3)CC2=O)c1 (configuration not stated) | inactive: 1.18% |

| SMILES | activity change, negative = cytotoxicity |
| --- | --- |
| COc1ccc(Cl)cc1NC(=O)Cn1nnc(C(=O)NCc2cccs2)c1N | inactive: -15.1% |
| COc1ccccc1NC(=O)COC(=O)CC(C)(C)CC1=NS(=O)(=O)c2ccccc2N1 | inactive: 14.3% |
| COc1ccc2c(CNCc3ccco3)c(C(=O)O)n(Cc3ccccc3)c2c1 | inactive: 7.05% |
| COc1ccc(-c2nnc(SCC(=O)c3ccc(NC(C)=O)cc3)o2)cc1OC | inactive: -3.68% |
| CSc1ccc(C2c3[nH]c4ccccc4c3CCN2C(=O)CCC2CCCC2)cc1 (configuration not stated) | inactive: -23.8% |
| COC(=O)c1c(-c2cccs2)csc1NC(=O)c1ccc(C(C)(C)C)cc1 | inactive: 2.21% |
| O=C(Nc1ccc2nc(SCC(=O)N3CCCC3)sc2c1)c1cccc(F)c1 | inactive: -5.21% |
| CCc1ccc(-n2c(=O)c3ccc(C(=O)NCCc4ccccc4)cc3n(Cc3ccccc3C#N)c2=O)cc1 | inactive: 13.1% |
| Cc1cccc(Cc2c(C)nc3nc(SCc4cccc(F)c4)nn3c2C)c1 | inactive: -2.24% |
| O=S(=O)(c1ccccc1)c1nnn2c1nc(NC1CCCCCC1)c1sccc12 | inactive: 18.7% |
| Cc1ccc(-c2nc(S(=O)(=O)c3ccc(C)cc3)c(N3CCCCC3)o2)cc1 | inactive: 1.52% |
| CCOc1ccc(CCNC(=O)CN2C(=O)COc3ccc(S(=O)(=O)N(CC)CC)cc32)cc1 | inactive: -0.047% |
| COc1cc(S(=O)(=O)n2ccnc2C(C)C)ccc1Br | inactive: 2.34% |
| Cc1ccc(Cn2ccnc2SCC(=O)NC2CCCC2)cc1 | inactive: 7.78% |
| O=C(Nc1ccc2nc(SCC(=O)N3CCc4ccccc43)sc2c1)c1ccc(Cl)cc1 | inactive: 19% |
| O=C(CSc1nc(-c2cccs2)cc(C(F)(F)F)n1)Nc1ccccc1Cl | inactive: -17.2% |
| Cc1ccc(CNC(=O)c2ccc(NC(=O)c3nsc4ccccc34)cc2)cc1 | inactive: 2.13% |
| CCCOc1ccc(CNC(=O)c2cc3oc4ccccc4c3n2C)cc1 | inactive: -0.414% |
| CCOc1ccccc1NC(=O)C(=O)NCC(c1cccnc1)N1CCN(c2ccccc2)CC1 (configuration not stated) | inactive: -21.2% |
| Cc1ccc(NC(=O)CN2C(=O)C(c3ccc(F)cc3)=NC2(C)C)c(C)c1 | inactive: -0.283% |

— PubChem BioAssay AID1508642 (National Center for Advancing Translational Sciences (NCATS), 2021)
